The viability, T/C is the ratio of treated to control.

Some entries of the source have several records that differ or are many. The other results are left out here. An entry can have further records. Values given together are repeated measurements across runs, samples, wells, individuals or studies. Brackets with × stand for listed records that agree.

The assay relates to 922993-354-T-J3-PDC complex spheroids, viability, % test/control. Briefly: Anticancer human tumor 922993-354-T-J3-PDC patient-derived endometrial carcinoma cell line growth inhibition [CLK]. Conditions: stronger effect = lower value. From the text:
A high-throughput screen of multi-cell type tumor spheroids was designed to identify active combinations of […] and targeted small molecules. Complex spheroids include a stromal component modeled by human endothelial cells (HUVEC) and fibroblasts modeled by human mesenchymal stem cells (MSCs). The concentration ranges selected for each drug and investigational agent were based upon clinically achievable concentrations if the clinical Cmax of the agent was known.
Compounds. The drugs and investigational agents: cirtuvivint (SM08502; NSC835563), CC-671 (NSC850746), vemurafenib (NSC761431), tapotoclax (NSC804041), sotorasib (NSC818433), adagrasib (NSC831453), MRTX-1133 (NSC836407), BAY2416964 (NSC825713), copanlisib (NSC816437), inavolisib (NSC800729), abemaciclib (NSC768073), osimertinib (NSC779217), entinostat (NSC756642), eltanexor (KPT-8602, NSC794443), venetoclax (NSC766270), ceralasertib (NSC777638), bortezomib (NSC756655), olaparib (NSC753686), talazoparib (NSC767125), alisertib (NSC759677), peposertib (NSC802822), gemcitabine (NSC613327), 5-fluorouracil (NSC19893), SN-38 (NSC673596), oxaliplatin (NSC266046), paclitaxel (NSC125973), and doxorubicin (NSC123127), were obtained from the National Cancer Institute (NCI) Developmental Therapeutics Program Chemical Repository. The FDA-approved anticancer drug set is available from the Developmental Therapeutics Program at https://dtp.cancer.gov/organization/dscb/obtaining/available plates.htm. […] The stock solutions were prepared in dimethyl sulfoxide (DMSO, Sigma-Aldrich, St. Louis, MO, cat. D2650), except for the platinum complexes which were prepared in saline (Quality Biological, Gaithersburg, MD, cat. 114-055-101), at 800-fold the tested concentration and stored at -70 degrees C prior to their use. All drugs and investigational agents were tested over a range starting from a high concentration at or near the clinical Cmax and decreasing in half-log increments. If the clinical Cmax for an agent had not been determined, the highest concentration tested was 10 microM.
Cell Culture. […]
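Also: spheroids exposed to the agents for 7 days before readout.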

For the molecule `CN1CCN(c2cc(C(=O)Nc3cc4cc(-c5cnn(C)c5)ccc4cn3)ccn2)CC1`, the viability, T/C is 112, 128, 108, 106, 103, 102, 107, 95.1, 93.9, 89.9, 125, 115% (compound alone 0.0316 µM) and 36.8, 30.9, 35.6, 49.8, 35.2, 41.6 (2×), 47.4, 40.3, 56.9, 45.4, 45.3% (compound alone 0.316 µM). On to `CNC(=O)c1ccc(Nc2nc(OC3CCCC3)c3c(-c4ccc5nc(C)oc5c4)c[nH]c3n2)c(OC)c1`, for which the viability, T/C (compound alone 0.316 µM) is given as 59.2, 54.7, 57.6, 56.3, 67.2, 71.5, 65.9, 57.2, 44.3, 69.1, 67.7, 60%.

(Values after PubChem BioAssay AID2060606 (Molecular Pharmacology Branch, DTP, NCI, 2025).)
